# The other results are listed elsewhere or left out.
# Molecular target: T1, OsWOX13 (Oryza sativa, UniProt Q5QMM3 1-267)
# T1 sequence: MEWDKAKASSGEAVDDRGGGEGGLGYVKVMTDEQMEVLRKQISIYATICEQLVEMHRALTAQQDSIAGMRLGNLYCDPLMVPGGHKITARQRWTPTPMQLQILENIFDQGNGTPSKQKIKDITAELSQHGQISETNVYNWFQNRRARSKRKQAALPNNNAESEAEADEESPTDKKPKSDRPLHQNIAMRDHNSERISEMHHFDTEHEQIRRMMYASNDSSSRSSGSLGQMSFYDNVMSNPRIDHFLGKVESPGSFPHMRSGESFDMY
# Test: protein-binding microarray (RPBM); PBS, 2% BSA, 51.3 ng/ul salmon testes DNA, 50 uM zinc acetate, 200 nM TF, 25 C, 1 h; high values mean tight binding
# Details: protein: recombinant; tags: N-terminal polyhistidine and DsRed monomer fusion (pET32a); label: CyDye5-dUTP incorporated in the synthesized complementary strand; 3' TTTTT single-stranded linker to array surface; dsDNA, one strand shown
# Procedure, shortened: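 Ni–NTA purification followed expression in E. coli BL21-CodonPlus of transcription factors fused N-terminally to a polyhistidine tag and DsRed. At 200 nM in PBS with 2% BSA, salmon testes DNA and 50 µM zinc acetate, the protein was incubated for 1 h at 25 °C with a custom Agilent array that had been primer-extended with Cy5-dUTP and blocked with 2% BSA. After washing, the array was read on an Axon 4000B scanner. The binding signal is per-feature fluorescence intensity in arbitrary units.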
row,Sequence,binding signal
1,ACAATAATAAAATTAAAATAACATTTACTTGTTGCAATGTCGGAGTCACCTAGTGCAG,3580 fluorescence intensity (a.u.)
2,CAGATGAATCAAATTGACCATGGTGGTGGTTGTGGTTGGGCGGAGTCACCTAGTGCAG,9060 fluorescence intensity (a.u.)
3,AATAGATTAATATGATTGTTTTAAAGCAACTTTCCTATTGCGGAGTCACCTAGTGCAG,43700 fluorescence intensity (a.u.)
4,TAATTAACCTCTACCGTAATTGGGTAACTTAATCACGACGCGGAGTCACCTAGTGCAG,5120 fluorescence intensity (a.u.)
5,TTGACATCATCATTGACGTGATAGATATAGTATATTAGACCGGAGTCACCTAGTGCAG,17000 fluorescence intensity (a.u.)
6,ATAAGGTGTACTTAATTTGTTCAATTGAAGAAAGACATGTCGGAGTCACCTAGTGCAG,5090 fluorescence intensity (a.u.)
7,GTGCAGTCTTCCTCTCTTAATTACTCATCCTGTACGAGCTCGGAGTCACCTAGTGCAG,4200 fluorescence intensity (a.u.)
8,ACGATTTTAATTGCATTCCTGCCTTCTTCGCCACATTATTCGGAGTCACCTAGTGCAG,10400 fluorescence intensity (a.u.)
9,AAATTAGCAAATACTTAATTAATTATGCGCTAATGAACCGCGGAGTCACCTAGTGCAG,16800 fluorescence intensity (a.u.)
10,TCCAAATTTGTTTTGAACGGATAGTAGCATTATCATATTCCGGAGTCACCTAGTGCAG,3750 fluorescence intensity (a.u.)
11,TGATTTGACTGATTTATCATCTGAAATATCTGAATGAATACGGAGTCACCTAGTGCAG,27200 fluorescence intensity (a.u.)
12,ATCCGTTTGATTTTGAAATCATAATGACAATAAAGAAGGGCGGAGTCACCTAGTGCAG,7230 fluorescence intensity (a.u.)
13,CGTGTGGATTAACTATAAATTTAGACACATATATGAAGCACGGAGTCACCTAGTGCAG,6530 fluorescence intensity (a.u.)
14,TTGAATGGTAAATGATTGGTCGATCGCGCAATGTCGAAGACGGAGTCACCTAGTGCAG,27400 fluorescence intensity (a.u.)
15,CCTAAATGTGTCTATTATGGTCAGACACTCTCTCACGGCACGGAGTCACCTAGTGCAG,9270 fluorescence intensity (a.u.)
16,TTAATTACCCATGACAGTTTGCTTACTTAAAGCCTGCATGCGGAGTCACCTAGTGCAG,13200 fluorescence intensity (a.u.)
17,TTTAATTAACTTTTATCCCCAATTATATCCCCTCCTTTTACGGAGTCACCTAGTGCAG,22700 fluorescence intensity (a.u.)
18,ACTTTCGATGTACGCTCTGATTGATATTTCTCCAATATCTCGGAGTCACCTAGTGCAG,19600 fluorescence intensity (a.u.)
19,CTAAACTCTAAATCATGTCATCGTAATTGGCCGGCGGAGGCGGAGTCACCTAGTGCAG,41900 fluorescence intensity (a.u.)
20,TAAGCACGTAATTATTACAATGGGTCGTTTATTGACTATTCGGAGTCACCTAGTGCAG,3480 fluorescence intensity (a.u.)
21,TTTAATTCTATCTAAACTTTTAATTTTAACGTGAGCTGAACGGAGTCACCTAGTGCAG,5690 fluorescence intensity (a.u.)
22,GGTGGCTAGATAGACAGACATGTTGCCCATCAACTTAAGACGGAGTCACCTAGTGCAG,4900 fluorescence intensity (a.u.)
23,TTTCTTGATTGTATGTTTGCTGCGTTAAGGGCTTCGGAGACGGAGTCACCTAGTGCAG,30900 fluorescence intensity (a.u.)
24,ACCCTAACTGATCGATCCACCGCTAGTTACTGTAGTGGGACGGAGTCACCTAGTGCAG,11600 fluorescence intensity (a.u.)
25,AAATTAACTTAATTAATAAGTTGAGCAGCCTGTAGGCCTTCGGAGTCACCTAGTGCAG,17500 fluorescence intensity (a.u.)
26,TTAGCCTAATTAATCCATAATTAGCAAATGTTTATTGTAGCGGAGTCACCTAGTGCAG,30600 fluorescence intensity (a.u.)
27,GGGAAAATTTAGAAGTCCTGATAGGTAAAGACTTTAAGTCCGGAGTCACCTAGTGCAG,6480 fluorescence intensity (a.u.)

row,Sequence,binding signal
1,TAACAAAATTATTATATGATGATCAATTTGAGAACGAGAGCGGAGTCACCTAGTGCAG,8570 fluorescence intensity (a.u.)
2,GGAAATTAAATTCGATAACTGTATCTCACGAGATAGGTAGCGGAGTCACCTAGTGCAG,23400 fluorescence intensity (a.u.)
3,TTGAACAAATAATTACAGTAATGTGAAATTTACTCAATGGCGGAGTCACCTAGTGCAG,8450 fluorescence intensity (a.u.)
4,TTGATTATTTGATCACACGAAAATAAATGCAAGCCCCATCCGGAGTCACCTAGTGCAG,21900 fluorescence intensity (a.u.)
5,CTCAATTGGCCACAAATTATGAAATTGGTTAATGCACAACCGGAGTCACCTAGTGCAG,30700 fluorescence intensity (a.u.)
6,TCCGTTCTAAATTAAATCAATCTAGAATAGAATAAGACATCGGAGTCACCTAGTGCAG,14700 fluorescence intensity (a.u.)
7,ATCCAATATTACATACATAACTAATTATATGTTTGGATGTCGGAGTCACCTAGTGCAG,4440 fluorescence intensity (a.u.)
8,AATTCGATTGGTATTCACAAATCACACATTCACGCTTGCTCGGAGTCACCTAGTGCAG,8900 fluorescence intensity (a.u.)
9,GCTGACTGATGACGGCGACGTCGGGAGGATGGAGAACGACCGGAGTCACCTAGTGCAG,20100 fluorescence intensity (a.u.)
10,ACTAAACTTTTAATTTTGGTGTGAACTAAACACAGCCTAACGGAGTCACCTAGTGCAG,9440 fluorescence intensity (a.u.)
11,AGCATAGAGACAGAGATGATTATTGTATCGCTATCAGCACCGGAGTCACCTAGTGCAG,4510 fluorescence intensity (a.u.)
12,AAGACAGAGTCAAATTAGCCACGTAGGTGCCACGTCAGCCCGGAGTCACCTAGTGCAG,5730 fluorescence intensity (a.u.)
13,GTACTTAATGAATTATAACAAAATACGAGTCGTTCCGTTCCGGAGTCACCTAGTGCAG,7360 fluorescence intensity (a.u.)
14,ATAAATAACTTTGATATAAATTGTTTGAATAAAACTAATGCGGAGTCACCTAGTGCAG,14300 fluorescence intensity (a.u.)
15,ACAATAATTAATACTTCAATTAATCATACTCAAGGTACAACGGAGTCACCTAGTGCAG,41200 fluorescence intensity (a.u.)
16,CGGGGAAATTTAACTTAACTCGTGATCAAGAGTTATATAGCGGAGTCACCTAGTGCAG,3530 fluorescence intensity (a.u.)
17,CGATCTAATTGTGAATCCTCTACCCTAGAGGACCTCCTATCGGAGTCACCTAGTGCAG,4020 fluorescence intensity (a.u.)
18,AATAACATTGATGTAATTAATCACTGATTTTGAAAAGAATCGGAGTCACCTAGTGCAG,12400 fluorescence intensity (a.u.)
19,TCCCAATTAAGTCAATCAGTAATAATAAATAATTATGAACCGGAGTCACCTAGTGCAG,32500 fluorescence intensity (a.u.)
20,TTATATAATTGTCATGATGAATTACTGCCTTGTCATCTGACGGAGTCACCTAGTGCAG,30000 fluorescence intensity (a.u.)
21,ATATAACTGATCTCCGAAAATTTTGTATATGGATTTGCGTCGGAGTCACCTAGTGCAG,14800 fluorescence intensity (a.u.)
22,CTCCCGTGCAGTTGCCAGTTGATTGGTTCAGCGTGGCTGCCGGAGTCACCTAGTGCAG,9720 fluorescence intensity (a.u.)
23,TCCTAAATTTAGCAACTTGTCAGGACACAAACTACAAGAACGGAGTCACCTAGTGCAG,6420 fluorescence intensity (a.u.)
24,GCCTGATGTGTTGATGTGCTGCTGTTCAGACTTTGAACCTCGGAGTCACCTAGTGCAG,5170 fluorescence intensity (a.u.)
25,TGATGATAGGCTTTGATCCCTAGAGCTTAATTCACTCCAGCGGAGTCACCTAGTGCAG,4770 fluorescence intensity (a.u.)
26,TCCTTGATTGTTATACCTCTTCTCTTCTTATTAATACATGCGGAGTCACCTAGTGCAG,35600 fluorescence intensity (a.u.)
27,TCCAATCAACAATGTGAACTCGCTAACACCATTCTAGTAGCGGAGTCACCTAGTGCAG,6300 fluorescence intensity (a.u.)
